# Structures can show the parent of a compound that is named as a salt. Over roughly 2,000 compounds, “fractional viability relative to vehicle” has its median near 0.91; the lowest 2% begin near 0.045. Some of the results follow.
# Tested on: TYKNU
# Test: fractional viability relative to vehicle; TYKNU is a high-grade serous ovarian cancer line; higher = less growth inhibition
# Conditions: 72 h
# Outline: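 TYKNU control cells or lentiCRISPRv2 knockout derivatives were seeded at 500 cells per well into drug-stamped 384-well plates holding a ~2100-compound library at 2 or 10 μM, in duplicate. Cells were grown at 37 °C in 5% CO2 in RPMI 1640 with 10% FBS, and drug treatment lasted 72 h. Viability was read by Cell Titer Glo luminescence. Duplicate treatment wells were averaged and normalised to duplicate control wells from the same plate position.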
# [1] = 2uM, genotype: DNM1L knockout (sgDNM1L #1)
# [2] = 2uM, genotype: sgCTRLA1 (non-targeting control)
# [3] = 10uM, genotype: DNM1L knockout (sgDNM1L #1)
# [4] = 10uM, genotype: sgCTRLA1 (non-targeting control)
SMILES,fractional viability [1],fractional viability [2],fractional viability [3],fractional viability [4]
CCOC(=O)NCCCC(=O)NCCc1ccccc1,0.756,0.967,0.873,0.778
CCC[C@H](NC(=O)/C(C#N)=C/c1cccc(Br)n1)c1ccccc1 [Degrasyn (WP1130)],0.0738,0.0639,0.0286,0.026
CC(C)(O)CC[C@@H](O)[C@](C)(O)[C@H]1CC[C@@]2(O)C3=CC(=O)[C@@H]4C[C@@H](O)[C@@H](O)C[C@]4(C)[C@H]3CC[C@]12C [20-Hydroxyecdysone],1.04,1.1,0.84,1.02
CNC(=O)c1nn(C)c2c1C(C)(C)Cc1cnc(Nc3ccc(N4CCN(C)CC4)cc3)nc1-2,0.409,0.387,0.307,0.229
CN1CCN(c2cccc(Nc3nc4c(-c5ccc(S(C)(=O)=O)cc5)cccn4n3)c2)CC1,0.89,0.911,0.549,0.649
COc1cc2nc(N3CCN(C(=O)C4CCCO4)CC3)nc(N)c2cc1OC (centres undefined) [Terazosin HCl],1.17,1.16,1.07,0.97
CN[C@@H](C)C(=O)N[C@H](C(=O)N1CCC[C@H]1C(=O)Nc1snnc1-c1ccccc1)C1CCCCC1,0.801,1.08,0.571,0.853
CNS(=O)(=O)Nc1nccc(Cc2c(C)c3ccc(Oc4ncccn4)cc3oc2=O)c1F,0.326,0.304,0.239,0.199
OC[C@@H](O)[C@@H](O)[C@H](O)[C@@H](O)CO [Sorbitol],0.882,1.18,0.868,1.04
CC(C)(C)c1cc(C(=O)C(C#N)=NNc2cccc(Cl)c2)no1,0.783,0.936,0.57,0.583
CC(=O)OCC(=O)[C@@]1(O)CC[C@H]2[C@@H]3CCC4=CC(=O)CC[C@]4(C)[C@H]3C(=O)C[C@@]21C [Cortisone acetate],0.961,1.14,0.985,1.02
FC(F)(F)c1ccc(/C=C/c2nc(COc3ccc(CCCCn4ccnn4)cc3)co2)cc1 [Mubritinib (TAK 165)],0.716,0.534,0.545,0.517
CN(C)CCCOc1nn(Cc2ccccc2)c2ccccc12 [Benzydamine HCl],0.913,1.16,0.72,0.996
O=C1c2c(O)cc(O)cc2OC(c2ccc(O)c(O)c2)C1O (centres undefined) [Taxifolin (Dihydroquercetin)],1.04,1.15,0.951,1.06
CC1=C(C(=O)OC2CCCCC2)C(c2ccc([N+](=O)[O-])cc2)C2=C(CC(C)(C)CC2=O)N1 (centres undefined),0.701,0.97,0.893,0.862
C[C@@H]1C(=O)O[C@H]2C[C@@]34[C@H]5C[C@@H](C(C)(C)C)[C@]36[C@@H](OC(=O)[C@@H]6O)O[C@@]4(C(=O)O5)[C@]21O [Ginkgolide A],1.02,1.13,1.01,1.16
O=C(O)C(Cc1ccccc1[N+](=O)[O-])=NNc1nc(-c2ccc(Cl)c(Cl)c2)cs1 (mixture of isomers),0.727,0.775,0.717,0.573
CC(c1cc2ccccc2s1)N(O)C(N)=O (centres undefined) [Zileuton],1.08,1.13,1.05,1.1
NC(=O)c1ncn([C@@H]2O[C@H](CO)[C@@H](O)[C@H]2O)c1N [Acadesine],0.96,1.03,0.952,1.04

SMILES,fractional viability [1],fractional viability [2],fractional viability [3],fractional viability [4]
CN(C)CCc1c[nH]c2ccc(C[C@H]3COC(=O)N3)cc12 [Zolmitriptan],0.993,0.968,0.833,1.07
CN(C)CCC=C1c2ccccc2C=Cc2ccccc21 [Cyclobenzaprine HCl],0.777,1.1,0.544,0.961
O=C1c2cccc(O)c2C(=O)c2c(O)cc(CO)cc21 [Aloe-emodin],1.09,1.12,0.862,1.14
NS(=O)(=O)c1cc2c(cc1Cl)NCNS2(=O)=O [Hydrochlorothiazide],1.01,1.19,0.965,1.12
O=C1C(=O)N(Cc2ccc(Cl)c(Cl)c2)c2ccccc21 [Apoptosis Activator 2],0.431,0.543,0.157,0.108
O=C(NC1CCOCC1)c1ccc(-c2cc(-c3c[nH]nc3-c3ccccn3)ccn2)cc1,1.38,1.21,1.17,1.04
COc1cc(/C=C/C(=O)O)ccc1O [Ferulic Acid],1.06,1.07,0.875,1.08
C[N+]1(C)CCC(=C(c2ccccc2)c2ccccc2)CC1 [Diphemanil Methylsulfate],1.2,1.1,0.784,0.943
O=c1[nH]c(=O)n([C@H]2C[C@H](O)[C@@H](CO)O2)cc1F [Floxuridine],0.828,0.971,0.535,0.428
C/C(=N\NC(=S)N1CCC1)c1ccccn1,0.171,0.137,0.225,0.167
COc1cc(C)c(/C=C/C(C)=C/C=C/C(C)=C/C(=O)O)c(C)c1C [Acitretin],0.966,1.16,0.811,1
C[C@@H]1COCCN1c1cc(C2([S@](C)(=N)=O)CC2)nc(-c2cc[nH]c3nccc2-3)n1,0.189,0.127,0.136,0.0834
CC(C)(F)C[C@H](N[C@@H](c1ccc(-c2ccc(S(C)(=O)=O)cc2)cc1)C(F)(F)F)C(=O)NC1(C#N)CC1 [Odanacatib (MK-0822)],1.09,1.09,1.02,0.997
CC(C)C[C@@H](C=O)NC(=O)[C@H](CC(C)C)NC(=O)[C@H](CC(C)C)NC(=O)OCc1ccccc1,0.0732,0.0639,0.0706,0.0779
COC1=CC(c2cc3ccccc3[nH]2)=N/C1=C\c1[nH]c(C)cc1C [Obatoclax Mesylate (GX15-070)],0.16,0.159,0.1,0.0774
N=C(N)NC(=N)N1CCOCC1 [Moroxydine HCl],0.969,1.12,0.888,1.12
CC(C)(C#N)c1ccc(N2C(=O)OCc3cnc4ccc(-c5cnc6ccccc6c5)cc4c32)cc1,0.66,0.59,0.252,0.16
CC(=O)Oc1cccc2c1C(=O)c1c(OC(C)=O)cc(C(=O)O)cc1C2=O [Diacerein],0.843,1.16,0.914,1.12
CCN(CC)Cc1ccc2cc(COC(=O)Nc3ccc(C(=O)NO)cc3)ccc2c1 [Givinostat (ITF2357)],0.523,0.131,1.04,0.0654

SMILES,fractional viability [1],fractional viability [2],fractional viability [3],fractional viability [4]
COc1ccc(NS(=O)(=O)c2ccc(N)cc2)nn1 [Sulfamethoxypyridazine],0.833,1.24,0.809,1.05
Nc1ccc(C(=O)NCC(=O)O)cc1 [4-Aminohippuric Acid],0.943,1.08,0.815,1.09
CCCC(=O)O[C@]1(C(=O)COC(C)=O)CC[C@H]2[C@@H]3C[C@H](F)C4=CC(=O)C=C[C@]4(C)[C@@]3(F)[C@@H](O)C[C@@]21C [Difluprednate],1.2,1.09,0.679,1.05
O=C(c1ccc(C(=O)N2CCC(N3CCCC3)CC2)c(Nc2ccccc2)c1)N1CCC(N2CCCC2)CC1,0.857,1,0.708,0.973
OC[C@H]1O[C@@H](Oc2ccc(O)cc2)[C@H](O)[C@@H](O)[C@@H]1O [Arbutin],1.09,1.02,1.06,1.07
NC(=O)c1cnc2[nH]ccc2c1N[C@@H]1[C@@H]2CC3C[C@H]1C[C@@](O)(C3)C2,0.909,0.934,0.701,0.589
CCN1CCN(C(=O)N[C@@H](C(=O)N[C@@H]2C(=O)N3[C@@H]2SC(C)(C)[C@@H]3C(=O)O)c2ccccc2)C(=O)C1=O [Piperacillin Sodium],0.777,1.04,0.757,1
CN(NC(=O)CC(=O)NN(C)C(=S)c1ccccc1)C(=S)c1ccccc1 [Elesclomol (STA-4783)],0.0609,0.0221,0.0751,0.0222
CO[C@@H]1[C@@H](OC(N)=O)[C@@H](O)[C@H](Oc2ccc3c(O)c(NC(=O)c4ccc(O)c(CC=C(C)C)c4)c(=O)oc3c2C)OC1(C)C [Novobiocin Sodium],0.882,1.17,0.895,1.19
CC(=O)OCOC(=O)CN(CC(=O)OCOC(C)=O)c1ccccc1OCCOc1ccccc1N(CC(=O)OCOC(C)=O)CC(=O)OCOC(C)=O,0.391,0.569,0.0416,0.0639
NC(=O)N/N=C/c1ccc([N+](=O)[O-])o1 [Nitrofural],1.34,1.13,1.26,1.2
O=C(O[C@H]1CN2CCC1CC2)N1CCc2ccccc2[C@@H]1c1ccccc1 [Solifenacin succinate],1.19,1.07,0.755,1.03
O=S(=O)(c1ccccc1)c1cnc2c(N3CCNCC3)cccc2c1,1.13,1.14,0.776,1.09
CC(C)C[C@H](NC(=O)[C@H](CCc1ccccc1)NC(=O)CN1CCOCC1)C(=O)N[C@@H](Cc1ccccc1)C(=O)N[C@@H](CC(C)C)C(=O)[C@@]1(C)CO1 [Carfilzomib (PR-171)],0.0773,0.0587,0.0559,0.057
CCCC(=O)Nc1ncnc2c1ncn2[C@@H]1O[C@@H]2COP(=O)(O)O[C@H]2[C@H]1OC(=O)CCC [Dibutyryl-cAMP (Bucladesine)],0.722,0.883,0.811,0.769
CN(C)CCC[C@@]1(c2ccc(F)cc2)OCc2cc(C#N)ccc21 [Escitalopram Oxalate],0.968,1.16,0.756,1.05
CC1=CC(=O)NS(=O)(=O)O1 [Acesulfame Potassium],1.16,1.13,0.791,1.17
CN1CCCC(n2nc(Cc3ccc(Cl)cc3)c3ccccc3c2=O)CC1 (centres undefined) [Azelastine HCl],0.953,0.941,0.594,0.543
